Results from the supplement of paper PMC6206098.
± gives the uncertainty stated by the source. The sequences are guide strands of siRNAs; only the seed at positions 2 to 7 varies.

Legend:
M565 = assay: cell viability relative to lipid-only control; higher = less toxic; conditions: concentration: 10 nM; 96 h; Mus musculus
Procedure: (§1)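 Arrayed screen of 4096 siRNA duplexes, each carrying one of all possible 6mer seeds at guide-strand positions 2-7 in a fixed neutral 19mer scaffold (constant flanks: U at position 1, then ACAUGUAAACCA, plus a 3' AA overhang). The passenger strand is 2'-O-methylated at positions 1-2 so only the guide strand loads into RISC. Duplexes were reverse-transfected at 10 nM with RNAiMAX in triplicate in 384-well plates; viability was read by CellTiter-Glo ATP content 96 h after transfection. Values are % viability normalised to lipid-only wells (HeyA8, H460, M565) or to siNT1 (3LL).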

HeyA8 = assay: as above; conditions: concentration: 10 nM; 96 h; Homo sapiens
Procedure: as §1

H460 = assay: as above; conditions: concentration: 10 nM; 96 h; Homo sapiens
Procedure: as §1

3LL = assay: cell viability relative to siNT1 control; HeyA8 human ovarian and H460 human lung cancer; M565 mouse liver and 3LL mouse lung cancer; siNT1 is a non-toxic control siRNA; higher = less toxic; conditions: concentration: 10 nM; 96 h; Mus musculus
Procedure: as §1
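Throughout, for cell viability relative to lipid-only control: reverse lipid transfection in 384-well plates, in triplicate, of duplexes on a non-toxic 19mer backbone with passenger strand 2′-O-methylated at positions 1 and 2, luminescence viability read-out.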
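Throughout, for cell viability relative to siNT1 control: Luminescence-based viability of cells reverse transfected in 384-well plates with lipid-complexed siRNAs built on a non-toxic 19mer backbone whose passenger strand carries 2′-O-methyl groups at positions 1 and 2, triplicates.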

Sequence	cell viability (M565)	cell viability (HeyA8)	cell viability (H460)	cell viability (3LL)
UACAGGAACAUGUAAACCAAA	64.3 ± 2.6%	96.3 ± 6.7%	74.7 ± 20%	81 ± 9.8%
UUAGUGGACAUGUAAACCAAA	56.1 ± 3.7%	64.1 ± 3.4%	63.4 ± 6.7%	31.8 ± 8%
UGUUCCAACAUGUAAACCAAA	14.4 ± 2.1%	13.9 ± 0.19%	21.7 ± 8.3%	20.7 ± 10%
UAGUCGCACAUGUAAACCAAA	57.6 ± 2.1%	32.5 ± 3.9%	64.7 ± 12%	31.8 ± 4.5%
UUGGGGCACAUGUAAACCAAA	27.5 ± 3.3%	13 ± 1%	38.1 ± 2.6%	5.88 ± 1.9%
UAACCCCACAUGUAAACCAAA	27.6 ± 4.1%	7.76 ± 0.57%	16.7 ± 4%	14.5 ± 1.8%
UUAUAGUACAUGUAAACCAAA	37 ± 2.8%	31.3 ± 2.8%	33.1 ± 3%	13.5 ± 0.82%
UACUUACACAUGUAAACCAAA	41.8 ± 7.9%	29.7 ± 4%	57.1 ± 4.7%	66.8 ± 3.7%
UGCCGCGACAUGUAAACCAAA	25.9 ± 3.8%	73.2 ± 4.6%	82.8 ± 7.3%	49.6 ± 2.2%
UGGACGUACAUGUAAACCAAA	10.7 ± 4.1%	54.2 ± 2.3%	35.3 ± 10%	54.9 ± 1.6%
UUUUGUGACAUGUAAACCAAA	79.4 ± 10%	96.6 ± 8.7%	93.9 ± 24%	102 ± 5.2%
UUCACUAACAUGUAAACCAAA	95.2 ± 12%	101 ± 16%	74.6 ± 11%	105 ± 18%
UAGCCGUACAUGUAAACCAAA	15.7 ± 2.2%	74.2 ± 3.6%	56.9 ± 14%	48.5 ± 1.3%
UUUUGCCACAUGUAAACCAAA	24.3 ± 4.8%	26.8 ± 1.2%	17.7 ± 1.2%	15.8 ± 1.1%
UUCCUGUACAUGUAAACCAAA	58.5 ± 6%	36.8 ± 4%	24.2 ± 5%	9.51 ± 2.2%
UUCCUCGACAUGUAAACCAAA	57.5 ± 4.3%	93.4 ± 14%	54 ± 4.6%	82.9 ± 18%
UGUUUGCACAUGUAAACCAAA	62.2 ± 1.5%	37.7 ± 4.3%	65.3 ± 7.7%	83 ± 11%
UCCCGGUACAUGUAAACCAAA	40.7 ± 7.5%	61.9 ± 1.4%	72 ± 7.5%	105 ± 21%
UAGCGCAACAUGUAAACCAAA	55.4 ± 1%	90.2 ± 6.1%	68.5 ± 5.2%	89.8 ± 9%
UUAGGUAACAUGUAAACCAAA	83.4 ± 2.8%	92.1 ± 6.8%	81.6 ± 14%	85.3 ± 9.3%
UGCGGCAACAUGUAAACCAAA	16.9 ± 5.3%	10.9 ± 2.3%	24.2 ± 1.6%	34.7 ± 5.2%
UUGCAUAACAUGUAAACCAAA	117 ± 10%	94.6 ± 11%	79.2 ± 1.5%	100 ± 7.6%

Sequence	cell viability (M565)	cell viability (HeyA8)	cell viability (H460)	cell viability (3LL)
UGUGUCGACAUGUAAACCAAA	50.3 ± 10%	43.8 ± 5.6%	49.6 ± 5.4%	29.3 ± 6.4%
UCUUGCAACAUGUAAACCAAA	68.7 ± 12%	81.2 ± 5.6%	68.1 ± 9.5%	94.9 ± 13%
UCCUUAGACAUGUAAACCAAA	56.5 ± 11%	82.4 ± 5.8%	79.3 ± 5%	102 ± 23%
UUUGUAUACAUGUAAACCAAA	94.9 ± 15%	88.7 ± 7.4%	89.9 ± 8.5%	65.2 ± 7.6%
UGCGCCAACAUGUAAACCAAA	67.7 ± 4.5%	83.6 ± 5.8%	79 ± 21%	61.3 ± 9.2%
UCACCAGACAUGUAAACCAAA	49.4 ± 4.7%	83.5 ± 11%	39.8 ± 2.7%	82.5 ± 14%
UGCAGCUACAUGUAAACCAAA	27.2 ± 1.3%	47.9 ± 5.2%	51.1 ± 3.5%	17.5 ± 7.4%
UUUACACACAUGUAAACCAAA	78.5 ± 3.1%	100 ± 6.7%	86.4 ± 11%	88.7 ± 1.5%
UAACGAGACAUGUAAACCAAA	81.4 ± 7.7%	88.3 ± 5.8%	64.9 ± 4.1%	85.2 ± 13%
UUAUAGGACAUGUAAACCAAA	56.9 ± 9.5%	63.1 ± 5%	48 ± 7.6%	32.6 ± 7.3%
UUUACCCACAUGUAAACCAAA	52.5 ± 8.7%	70.2 ± 4.6%	83 ± 18%	39.6 ± 7.5%
UACUCUUACAUGUAAACCAAA	58.6 ± 3.4%	80.5 ± 6%	88.7 ± 12%	83.7 ± 3.7%
UGCUUUUACAUGUAAACCAAA	58.4 ± 7.3%	11.9 ± 2.2%	41 ± 1.8%	47.8 ± 5.2%
UCAAAACACAUGUAAACCAAA	84.4 ± 8.1%	75 ± 8%	62.5 ± 16%	90.9 ± 13%
UGGGCAGACAUGUAAACCAAA	9.95 ± 2.5%	1.28 ± 0.12%	10.7 ± 1.9%	13.5 ± 3.2%
UAUCAAUACAUGUAAACCAAA	88.4 ± 24%	91.2 ± 5%	66.7 ± 5.6%	112 ± 9.9%
UAUCCUAACAUGUAAACCAAA	76.6 ± 14%	91 ± 2.3%	96.7 ± 9.6%	117 ± 6.4%
UAGGCUAACAUGUAAACCAAA	40.5 ± 1.2%	62.6 ± 4.8%	69.4 ± 13%	81.8 ± 10%
UCGGCCAACAUGUAAACCAAA	29.1 ± 7.7%	69.8 ± 5.7%	66.4 ± 7.9%	74.5 ± 20%
UAGACUCACAUGUAAACCAAA	18.7 ± 5.5%	66.6 ± 5.6%	61.3 ± 5.2%	36.1 ± 4%
UCUCUGCACAUGUAAACCAAA	44 ± 3.4%	37.6 ± 4.9%	29.9 ± 5.9%	33.3 ± 1.5%
UAUUCCGACAUGUAAACCAAA	90.3 ± 12%	88.8 ± 10%	73.2 ± 7.5%	90.4 ± 13%
